We go through 70 compounds from PubChem BioAssay AID488969 (Vanderbilt High Throughput Screening Facility, 2010).

The structures appear in SMILES notation. Over roughly 110,000 compounds, “z-score” has its median near -0.1; the highest 2% begin near 2. Some of the results follow. Calls of active or inactive are those of the source.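 The calls were made as follows: active = z-score in the third read window above 3 or below -3; inactive = the rest.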

The target in the assay is Metabotropic glutamate receptor 8 (Rattus norvegicus) (UniProt P70579). As to the kind of experiment: rat mGluR8 modulators via GIRK flux, primary screen, cell-based, thallium flux, HTS (AID 488969). As to conditions: HEK293 rat mGluR8, GIRK (G protein-gated inwardly rectifying potassium channel) thallium flux, FluoZin2; at 10 µM; stronger effect = higher value; submaximal glutamate (EC20) added with thallium.
UniProt P70579, sequence (P70579 whole entry, looked up): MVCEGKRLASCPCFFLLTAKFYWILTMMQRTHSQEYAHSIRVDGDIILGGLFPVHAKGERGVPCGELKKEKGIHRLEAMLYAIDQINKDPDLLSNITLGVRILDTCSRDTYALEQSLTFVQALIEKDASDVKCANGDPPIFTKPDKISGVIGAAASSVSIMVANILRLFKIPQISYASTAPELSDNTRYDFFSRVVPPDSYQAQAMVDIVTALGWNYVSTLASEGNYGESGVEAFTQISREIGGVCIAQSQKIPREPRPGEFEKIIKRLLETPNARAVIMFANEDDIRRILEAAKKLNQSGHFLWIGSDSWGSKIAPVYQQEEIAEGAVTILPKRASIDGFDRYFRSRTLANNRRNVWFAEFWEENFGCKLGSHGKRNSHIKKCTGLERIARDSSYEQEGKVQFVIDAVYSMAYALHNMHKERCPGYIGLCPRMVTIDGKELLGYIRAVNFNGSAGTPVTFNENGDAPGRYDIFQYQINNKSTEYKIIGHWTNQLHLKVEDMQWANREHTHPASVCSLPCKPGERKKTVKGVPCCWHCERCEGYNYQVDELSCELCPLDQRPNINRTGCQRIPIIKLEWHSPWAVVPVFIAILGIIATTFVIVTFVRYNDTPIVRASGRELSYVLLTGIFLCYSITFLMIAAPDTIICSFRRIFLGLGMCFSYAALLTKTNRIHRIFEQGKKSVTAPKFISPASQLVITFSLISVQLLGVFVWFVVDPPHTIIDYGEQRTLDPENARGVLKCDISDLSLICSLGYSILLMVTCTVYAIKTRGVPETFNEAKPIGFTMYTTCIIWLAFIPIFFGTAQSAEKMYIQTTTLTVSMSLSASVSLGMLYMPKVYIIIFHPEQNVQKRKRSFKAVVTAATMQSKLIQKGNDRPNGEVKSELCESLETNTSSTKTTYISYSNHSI
Take `Cc1ccc(S(=O)(=O)NCCC(=O)NC2CCCC2)cc1`: the z-score was determined as 0.757.

In turn, `CCNc1ccc(C(=O)OCC)cc1NC(=O)c1cc(S(=O)(=O)N2CCOCC2)ccc1C` registered a z-score of -0.288.

Consider `O=C(O)CC1S/C(=N\N=C/c2ccccc2)N(c2ccc(O)cc2)C1=O` (stereo not given), for which the z-score is -0.0484.

In turn, `CC(=O)c1c(C)nc2nonc2c1N` returned a z-score of 0.36.

`CCOC(=O)c1ccc(-c2n[nH]c(=O)c3ccccc23)cc1`: the z-score was -0.666.

Compound `Cc1cccc(NC(=O)CC23CC4CC(C2)CC(n2nnc(C)n2)(C4)C3)c1` gave a z-score of -0.706.

Turning to `COc1ccc(C)cc1-n1nnnc1SCc1nc2ccccc2s1`, the z-score worked out at 0.233.

`CC1=NN(c2cccc(Cl)c2)C(=O)C12CC(C)=C(C)CS2` (stereo not given) registered a z-score of 0.772.

As to `O=C(NCCc1c[nH]c2ccccc12)c1ccc(S(=O)(=O)NCc2ccco2)cc1`, the z-score is -0.369.

As to `COc1cc2[nH]c(=O)n(C3CCCCC3)c(=O)c2cc1OC`, the z-score is -0.246.

`CCOC(=O)c1c(NC(=O)CSc2nnc3c(n2)[nH]c2ccc(F)cc23)sc(C(C)=O)c1C` displayed a z-score of -0.0188.

Compound `COc1ccc(OC)c(C(=O)CC2OC(=O)c3ccccc32)c1` (stereo not given) registered a z-score of -0.0969.

As for `COc1ccc(/C=N/NC(=O)c2cccc([N+](=O)[O-])c2)cc1OC(=O)c1ccccc1`, the z-score was -0.358.

`COc1cc2c(cc1OC)-c1nnc(-c3cccs3)n1C1(CCCC1)C2`: the z-score is -0.197.

With `Cc1nn(C)c(Oc2ccc(Cl)cc2)c1C=O`, the z-score is -0.135.

For the compound `CCN(CCNC(=O)C1CCN(Cc2nc(-c3ccc(Cl)cc3)oc2C)CC1)c1ccccc1`, the z-score worked out at 1.3.

The compound `O=C(c1ccccc1-c1nc2ccccc2[nH]1)N1CCCCC1` returned a z-score of 0.101.

Compound `COc1ccc(/C=N\N=C2/SC(CC(=O)O)C(=O)N2c2ccc(O)cc2)cc1` (stereo not given) had a z-score of -0.0572.

`Cc1ccc(S(=O)(=O)Oc2ccc(C3C4=C(CCCC4=O)N(CCC(=O)O)C4=C3C(=O)CCC4)cc2Cl)cc1` displayed a z-score of -0.196.

Compound `CC(C)(C)c1nn2cnnc2n(/N=C/c2cccc3ccccc23)c1=O` registered a z-score of -0.305.

Turning to `Cc1nn(C)c(Cl)c1NC(=O)OCc1ccc(Cl)cc1Cl`, the z-score is -0.256.

As for `Cc1c(/C=N/NC(=O)C(C)(C)Oc2ccc(Cl)cc2)cnn1C`, the z-score is -0.204.

Take `CS(=O)(=O)N1CCc2cc(S(=O)(=O)Nc3ccc4c(c3)OCCO4)ccc21`: the z-score is 0.322.

In turn, `CC(CCc1ccco1)NC(=O)CSc1cc(=O)n(C)c2ccccc12` (stereo not given) displayed a z-score of -0.0108.

For `COc1cc(S(=O)(=O)NC2CCCC2)ccc1F`, the z-score was -0.484.

For `CC(C)c1nc(SCC(=O)Nc2cccc(S(N)(=O)=O)c2)n[nH]1`, the z-score is -0.115.

On to `CC(C)NC(=O)CCCOc1ccc(Cl)cc1Cl`, for which the z-score was -0.491.

For the compound `Cn1cnc2c1c(=O)n(Cc1c(Cl)cccc1Cl)c(=O)n2C`, the z-score was -0.318.

Take `COC(=O)CCCCCCCCC(=O)Nc1nc2ccccc2s1`: the z-score was -0.16.

`O=C(CSc1nnc(-c2cccs2)n1-c1ccccc1)NCC1CCCO1` (stereo not given) registered a z-score of -0.616.

With `CCOc1ccc(-c2nnc(-c3cccnc3)o2)cc1OCC`, the z-score is 0.0661.

Regarding `CCC(=O)OCc1c(C(F)(F)F)nn(C)c1Sc1ccc(F)cc1`, the z-score was determined as 0.0175.

`O=C(CSC1=NCCS1)Nc1nc(-c2ccccc2)cs1` showed a z-score of -0.364.

Take `Cc1cccc(C)c1NC(=S)N1CCC(N(C)CC2CCCO2)CC1` (stereo not given): the z-score was 0.0109.

As for `CC1(C)CC(=O)C2=C(C1)OC(N)=C(C#N)C2c1cc2c(cc1[N+](=O)[O-])OCO2` (stereo not given), the z-score is -1.6.

In turn, `O=C(NCc1ccccc1)N1CCn2c(nc3ccccc32)C1` returned a z-score of -0.567.

As for `CC(C)(C)CC(=O)NCCCCCCNC(=O)CC(C)(C)C`, the z-score was -0.91.

`Cc1ccc(C)c(CSc2nnc(-c3ccccn3)n2N)c1` registered a z-score of -0.204.

The compound `NC(=O)CNC(=O)C1CCCc2c1[nH]c1ccc(Cl)cc21` (stereo not given) came in with a z-score of 0.332.

Consider `CCSc1nnc(NC(=O)CSc2nnc(Cc3cccn3C)n2CCc2ccccc2)s1`, for which the z-score amounted to 1.24.

For `CCSc1nnc(NC(=O)c2ccc3ccccc3n2)s1`, the z-score was active: 11.8.

With `CN(C(=S)Nc1ccc(SC(F)F)cc1)c1ccc(O)cc1`, the z-score was determined as 0.142.

`Cc1noc(C)c1COC(=O)c1cc(C)n(-c2ccccc2)c1C`: the z-score was 1.52.

Turning to `CC1Cc2ccccc2N1C(=O)CN1C(=O)CN(C)C(=O)c2ccccc21` (stereo not given), the z-score was -0.498.

The compound `O=C(CN1C(=O)c2ccccc2S1(=O)=O)N1CCN(c2ccc(F)cc2)CC1` returned a z-score of -0.085.

In turn, `CC1(C)CC(=O)C2=C(C1)NC(=O)CC2C(=O)NCc1ccc(F)cc1` (stereo not given) came in with a z-score of -0.155.

`COc1ccc(CCNC(=O)CCC(=O)N2CCN(S(=O)(=O)c3ccc(Cl)cc3)CC2)cc1OC` gave a z-score of -0.0943.

Take `CC(C)C(=O)Nc1nnc(CCc2nnc(NC(=O)C(C)C)s2)s1`: the z-score was 0.549.

As to `Cc1cc(-c2ccccc2)n(-c2cc(N/N=C/c3ccccc3O)ncn2)n1`, the z-score is -0.217.

`Cc1ccc(C(C)NC(=O)c2c(C)noc2C)cc1C` (stereo not given) displayed a z-score of 0.297.

As to `Cc1c(NC(=O)Oc2ccccc2)sc(=S)n1C`, the z-score is -2.17.

In the case of `COc1ccc(C(C#N)Nc2ccc(C)cc2)cc1` (stereo not given), the z-score is -0.276.

Compound `CCn1c(=O)n(CC)c2cc(S(N)(=O)=O)c(C)cc21` came in with a z-score of 0.381.

`CC(=O)c1cnn(-c2cc(Oc3cccc(C)c3)ncn2)c1C` yielded a z-score of 2.24.

Turning to `Cc1ccc(C(C(=O)NC2CCCCC2)N2CCOCC2)cc1` (stereo not given), the z-score is -0.899.

The compound `Oc1c(/C=N/c2ncn[nH]2)ccc2ccccc12` came in with a z-score of 0.0888.

For `O=C(Nc1nc(NC(=O)c2ccco2)n(-c2ccccc2)n1)c1ccccc1`, the z-score is 0.158.

In turn, `Cc1cc(C)n(-c2nc3sc4c(c3c(=O)[nH]2)CCCC4)n1` yielded a z-score of -0.209.

In turn, `Cn1cnnc1Sc1cc(N2CCN(S(=O)(=O)c3ccc4ccccc4c3)CC2)ccc1[N+](=O)[O-]` showed a z-score of 0.0836.

In turn, `Cc1cc2ncn(/N=C/c3ccc(-c4ccccc4)o3)c2cc1C` returned a z-score of 0.235.

In turn, `c1cnc2ccc(C(c3nnnn3C3CCCCC3)N3CCCCC3)cc2c1` (stereo not given) displayed a z-score of -0.129.

Compound `CC(C)n1c(/C=C/c2ccccc2)nc2ccccc21` showed a z-score of 0.0811.

Compound `O=C(O)c1ccc(N/N=C/c2ccc(OC(=O)c3ccccc3Cl)cc2)cc1` had a z-score of -0.31.

For `Cc1noc(C)c1S(=O)(=O)NC1CCN(Cc2ccccc2)CC1`, the z-score stood at 0.32.

The compound `C=CCOc1ccc(C2C(C(=O)c3cccs3)=C(O)C(=O)N2c2nnc(C)s2)cc1` (stereo not given) returned a z-score of -0.198.

`CCCn1nc2cc(C(=O)N(CC)c3ccc(OC)cc3)ccc2c1OCC` yielded a z-score of -0.2.

Consider `O=C(NC1CCCC1)C1CC1c1ccccc1` (stereo not given), for which the z-score was 0.0881.

Compound `Oc1ccc(-c2nnc(-c3ccccc3)c(-c3ccccc3)n2)cc1` came in with a z-score of 0.731.

The compound `COc1ccc(Cl)cc1NC(=S)NCCc1c[nH]c2ccccc12` returned a z-score of 0.142.

For the compound `CCOC(=O)N1CCC(NC(=O)Cn2cccc2C(=O)c2ccccc2C)CC1`, the z-score was -0.00445.
